The structures appear in SMILES notation. About 220 (0.56%) of roughly 39,000 compounds showed activity. The list shows a part of the results.
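Note: static incubation at 37 °C against the wild-type strain, values averaged over two biological replicates.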

This experiment deals with Escherichia coli K-12 BW25113. In words: relative growth (OD600 normalised to plate interquartile mean) (fraction); higher = less growth inhibition, active = 0.2 or less. The settings on record: 50 µM; LB; incubation time: overnight (16-24 h).
On to `CNCC(=O)c1ccc(O)cc1`, for which the relative growth was inactive: 0.938.
With `O=C(O)c1ccc(=O)[nH]c1` the figure was inactive: 0.976; with `S=C=Nc1cccc(C2(N3CCCCC3)CCCCC2)c1`, inactive: 0.999.
With `COC(=O)C[C@H]1CC[C@H]2NC[C@@H](O)COC[C@@H]2O1` the figure was inactive: 1; with `Cl.Cn1c(CCCC(=O)O)nc2cc(N(CCCl)CCCl)ccc21`, inactive: 1.09; with `O=c1[nH]c2ccccc2n1C1CCN(CCCC(c2ccc(F)cc2)c2ccc(F)cc2)CC1`, inactive: 0.939.
With `O=C(c1ccco1)N1C[C@H]2CN[C@@H](C2)C1` the figure was inactive: 1.
Take `CC(=O)Nc1cc([As](=O)(O)O)ccc1O`: the relative growth was inactive: 1.
With `Cc1cc2c(C(C)C)c(O)c(O)c(C=O)c2c(O)c1-c1c(C)cc2c(C(C)C)c(O)c(O)c(C=O)c2c1O` the figure was inactive: 1.02.
With `COc1cccc2c1cc([N+](=O)[O-])c1c(C(=O)O)cc3c(c12)OCO3` the figure was inactive: 1.02.
With `O=C1C[C@H](c2ccccc2)[C@@H]2CNCCN12`, the relative growth is inactive: 1.03.
For the compound `CCC1C2CC3C4N(C)c5ccccc5C45CC(C2C5O)N3C1O` (centres undefined), the relative growth is inactive: 1.07.
With `Cc1nc([N+](=O)[O-])c(N2CCNCC2)[nH]1` the figure was inactive: 1.
Turning to `NCC[C@H](NC(=O)[C@@H](N)CCCNC(N)=N[N+](=O)[O-])C(N)=O.O=CC(F)(F)F`, the relative growth is inactive: 1.01.
With `COc1ccc(OC(=O)N(C)C[C@H]2OCc3ccccc3-c3c(n(C)c4ccccc34)C(=O)N([C@@H](C)CO)C[C@@H]2C)cc1` the figure was inactive: 0.999.
With `CN1C2CCC1CC(OC(=O)C(CO)c1ccccc1)C2` (centres undefined) the figure was inactive: 0.973.
In the case of `COc1cccc(N=[N+]=[N-])c1`, the relative growth is inactive: 0.99.
Regarding `CC=C(C)C(=O)OC1CC(OC(C)=O)C2(C(=O)OC)COC3C2C12COC(O)(C(=O)OC)C2C(C)(C12OC1(C)C1CC2OC2OC=CC21O)C3O` (centres undefined), the relative growth is inactive: 0.942.
With `OC[C@H]1O[C@@H](Oc2c[nH]c3ccc(Br)c(Cl)c23)[C@H](O)[C@@H](O)[C@H]1O` the figure was inactive: 1.04.
With `CCC(C(N)=O)N1CCCC1=O` (centres undefined), the relative growth was inactive: 1.05.
With `CN(C)C(=O)[C@@]1(Cc2ccccc2CN=[N+]=[N-])N=C(c2ccc(OCCCO)cc2)O[C@H]1c1ccccc1N=[N+]=[N-]` the figure was inactive: 1.01; with `O=[N+]([O-])NC1=NCCN1Cc1ccc(Cl)nc1`, inactive: 1.22.
On to `Nc1ccc(-c2ccccc2)cc1`, for which the relative growth is inactive: 0.97.
With `CCC(C)C1OC2(C=CC1C)CC1CC(CC=C(C)C(OC3CC(OC)C(OC4CC(OC)C(O)C(C)O4)C(C)O3)C(C)C=CC=C3COC4C(O)C(C)=CC(C(=O)O1)C34O)O2` (centres undefined) [ABAMECTIN (avermectin B1a shown)] the figure was inactive: 0.77.

The values above are taken from the supplement of paper PMC9446081.
